Source: PubChem BioAssay AID686971 (National Center for Advancing Translational Sciences (NCATS), 2013)
Where “and” joins values, the source holds several entries; their conditions need not be identical. Equal values may be shown once. Screen size: about 360,000 compounds; about 7,500 (2.1%) were called active. The inconclusive results got no clear call from the source; some entries with a clear call stand among them for comparison. Calls follow the shape of the dose curve; as a rule, active = well fitted cell-killing curve with a large enough effect; inconclusive = small, poorly fitted or top-dose-only effect, or effect the other way, or another doubt; inactive = no such curve, though single readings can be large or run the other way. A potency beside an inconclusive call is a rough fit, not a confirmed value.

Assay: qHTS for induction of synthetic lethality in tumor cells producing 2HG: qHTS for the HT-1080-IDH1KD cell line;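 as to activity, negative = toxicity: 0% = DMSO wells and -100% = cell-free medium wells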
Conditions: HT-1080 IDH1 knockdown viability, ATP luminescence, 48 h; activity, negative = toxicity: at 46.1 µM (top of the series) unless noted
Procedure, shortened: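 Knockdown cells (IDH1KD HT-1080) received compounds 2 h after plating at 750 cells/well and were kept 48 h at 37 °C in 5% FBS RPMI. A CellTiter-Glo luminescence read gave % activity for curve fitting.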
Potency is read from the fitted curve at half-maximal effect; tags tell the direction and shape of the fitted curve.

Row | Structure (SMILES) | Potency | activity, negative = toxicity
1 | COc1ccc(C(=O)N2CCc3cc(OC)c(OC)cc3C2c2ccc(OC)c(OC)c2)cc1OC (centres undefined) | inactive | 
2 | CCOC(=O)C1CCCN(S(=O)(=O)c2ccc3ccccc3c2)C1 (centres undefined) | inactive | 
3 | O=C(C1=C[C@@H](c2ccccc2)C[C@@H](OCc2ccc(CO)cc2)O1)N1CCN(Cc2ccc3c(c2)OCO3)CC1 | active: 16.4 µM | 
4 | CC1CC(C)CN(C(=S)SCc2nc(N)nc(Nc3ccccc3)n2)C1 (centres undefined) | active: 32.6 µM | 
5 | c1ccc(-c2cn3c4c(sc3n2)CCCC4)cc1 | inconclusive: 22.4 µM [cytotoxic, single point] and inconclusive: 13 µM [cytotoxic, single point] | 
6 | CCCCNc1c(-c2ccc(Sc3ccc(OC)cc3)cc2)nc2cc(C)ccn12 | inconclusive: 29.1 µM [cytotoxic, single point] | 
7 | CCOC(=O)CS(=O)(=O)c1nc(-c2ccccc2)cc(C(F)(F)F)n1 | active: 6.51 µM | 
8 | O=C(Nc1nc2c(Cl)cccc2s1)c1ccc(Br)o1 | inactive | 
9 | CCCC(=O)N1CCC1(C)C(=O)Nc1ccccc1C(C)(C)C (centres undefined) | inactive | 
10 | CC(=O)Nc1ccc2nc(NC(=O)c3ccc([N+](=O)[O-])o3)sc2c1 | active: 5.17 µM | 
11 | NC(N)=N/N=C/c1ccc2cccc(OCc3ccccc3)c2n1 | inconclusive: 23.1 µM [cytotoxic, single point] | 
12 | O=C1Nc2ccccc2/C1=N\c1sc2c(c1C(=O)Nc1ccccc1)CCCC2 | inactive | 
13 | O=C(c1cc2c(s1)-c1ccccc1S(=O)(=O)C2)N1CCN(Cc2ccccc2)CC1 | inconclusive: 29.1 µM [cytotoxic, single point] | 
14 | COC(=O)[C@@]1(Cc2ccc(OC)cc2)[C@@H]2C(=CC(=O)[C@H]2CC(=O)C(=O)N2CCCC2)CN1C(=O)c1ccccc1 | active: 20.6 µM | 
15 | O=C(c1ccc(Cl)c(Cl)c1)N(Cc1ccco1)c1ccc(O)cc1 | inconclusive: 18.4 µM [cytotoxic, single point] | 
16 | OC(CCCN1CCC(O)(c2ccc(Cl)cc2)CC1)c1ccc(F)cc1 (centres undefined) | inconclusive: 29.1 µM [cytotoxic, single point] | 
17 | Cc1ccc(N=Nc2c(N)[nH]n3c(=O)cc(-c4ccccc4)nc23)cc1 | inactive | 
18 | Cn1c2ccc(F)cc2c2ncn(Cc3ccco3)c(=O)c21 | inconclusive: 25.1 µM [cytotoxic, single point] | 
19 | COC(=O)c1sccc1S(=O)(=O)Nc1ccc(C(O)(C(F)(F)F)C(F)(F)F)cc1 | inconclusive: 20.6 µM [cytotoxic, single point] | 
20 | Cc1cccc(Nc2nc(N)nc(-c3oc4ccccc4c3C)n2)c1 | inconclusive: 14.6 µM [cytotoxic, partial curve] | 
21 | O=C(Nc1cccc(-c2nc3ccccc3[nH]2)c1)c1cccc(NC(=O)c2ccco2)c1 | inconclusive: 35.5 µM [cytotoxic, single point] | 
22 | CCOc1ccc(N(Cc2ccc(C(=O)O)cc2)S(=O)(=O)c2ccc(C)cc2)cc1 | active: 7.31 µM | 
23 | Cc1ccc(S(=O)(=O)N2CCCCC2)cc1NC(=O)CSc1nccn1C | inactive | 
24 | COc1ccc2c(c1)N(C[C@H](C)CN(C)C)c1ccccc1S2 | active: 20.6 µM | 
25 | CC(C)CN(CC(C)C)CC(O)COc1ccccc1Br (centres undefined) | inconclusive: 29.1 µM [cytotoxic, single point] | 

Row | Structure (SMILES) | Potency | activity, negative = toxicity
26 | O=C(Nc1nnc(-c2ccc(F)cc2)o1)c1ccc(S(=O)(=O)N2CCOCC2)cc1 | inconclusive: 1.16 µM [cytotoxic, full curve] | 
27 | CCOC(=O)N1CCN(Cc2cc(Cl)c3cccnc3c2O)CC1 | active: 3.26 µM | 
28 | CN(C)C(=O)c1ccc(NC(=O)c2cc(-c3ccco3)nc3ccccc23)cc1 | inactive | 
29 | C=C1[C@@H](O)[C@H](Cc2ccccc2)N(Cc2ccccc2Br)S1(=O)=O | active: 23.1 µM | 
30 | CC1=CC(=O)N(c2cccc3c(N4C(=O)C=C(C)C4=O)cccc23)C1=O | active: 25.9 µM | 
31 | O=c1ccc(C(F)(F)F)cn1Cc1cc(=O)n2ccsc2n1 |  | inconclusive: 6.36% [cytotoxic]
32 | Cc1noc(NS(=O)(=O)c2ccc(NC(=O)/C=C/c3ccc(C(C)C)cc3)cc2)c1C | inconclusive: 14.6 µM [cytotoxic, single point] | 
33 | CCOc1ccc(C(=O)Nc2cc(-c3nc4ccccc4[nH]3)ccc2Cl)cc1[N+](=O)[O-] | active: 18.4 µM | 
34 | CCCN1CCN(CCCNC(=O)c2ccc3c(Cl)c4c(nc3c2)CCCC4)CC1 | inconclusive: 23.1 µM [cytotoxic, single point] | 
35 | COc1ccc(-c2csc(Nc3ccccc3)n2)cc1 | inconclusive: 20.6 µM [cytotoxic, partial curve, poor fit] | 
36 | CCN(c1ccccc1)S(=O)(=O)c1ccc(Cl)c(NC(=O)CN2CCCCCC2)c1 | inconclusive: 16.4 µM [cytotoxic, partial curve] | 
37 | Oc1c(C(Nc2ccccn2)c2ccccn2)ccc2cccnc12 (centres undefined) | active: 8.2 µM | 
38 | CCCCNC(=O)C1CCC(CNS(=O)(=O)c2cccc3nsnc23)CC1 (centres undefined) | inactive | 
39 | COc1ccccc1C(=O)N/C(=C\c1cn(S(=O)(=O)N(C)C)c2ccccc12)C(=O)NCCCN1CCOCC1 | inconclusive: 29.1 µM [cytotoxic, single point] | 
40 | O=C1N/C(=N\N=C\c2ccccn2)SC1Cc1cccc(SC(F)F)c1 (centres undefined) | inconclusive: 3.66 µM [cytotoxic, full curve, poor fit] | 
41 | CN(Cc1ccco1)C(=O)C1CCC(=O)N(CCc2cccc(F)c2)C1 (centres undefined) | inactive | 
42 | CCC(C(=O)OCC(=O)Nc1cc(Cl)cc(Cl)c1)c1ccccc1 (centres undefined) | inactive | 
43 | Clc1cccc(/C(Cc2nc3ccccc3[nH]2)=N\Nc2ccccc2)c1 | inconclusive: 29.1 µM [cytotoxic, single point] | 
44 | CCNc1nc(NC(C)C)nc(SCCOc2ccc(C)cc2)n1 | inconclusive: 18.4 µM [cytotoxic, partial curve] | 
45 | CCc1cc2c(=O)c(-c3cscn3)coc2cc1O | inconclusive: 18.4 µM [cytotoxic, single point] | 
46 | Cc1ccc(C2CC2c2n[nH]c(=S)n2-c2ccc(Cl)cc2)cc1 (centres undefined) | inconclusive: 12.6 µM [cytotoxic, single point] | 
47 | C[C@H](NC(=O)N1CCn2c1nc1ccccc12)C(=O)NCCc1ccccc1 | inactive | 
48 | NNC(=O)c1cc2cc(Oc3ccccc3)ccc2[nH]1 | inactive | 
49 | O=C(CCl)Nc1c[nH]c(=O)[nH]c1=O | inconclusive: 29.1 µM [cytotoxic, single point] | 
50 | COc1ccc(-c2nc3ccc(C)cn3c2Cc2cccc(Cl)c2)cc1OC | active: 18.4 µM | 

Row | Structure (SMILES) | Potency | activity, negative = toxicity
51 | O=C(COC(=O)c1ccccc1Cl)NCCC1=CCCCC1 | inactive | 
52 | O=C(c1cccnc1)N1CCCc2ccccc21 | inactive | 
53 | CCOC(=O)C1=CN(Cc2cccc(F)c2)S(=O)(=O)NC1c1ccc(Br)cc1F (centres undefined) | inconclusive: 29.1 µM [cytotoxic, single point] | 
54 | CCNC(=S)N/N=C/c1cc(Br)cc(Br)c1OC | active: 3.98 µM | 
55 | CCOc1ccc2c(c1)OC(c1ccc(C)cc1)(C(F)(F)F)NC2=O (centres undefined) | active: 2.31 µM | 
56 | C/C(=N\NC(=O)CNc1cccc(C(F)(F)F)c1)c1ccc(Br)cc1 | inconclusive: 32.6 µM [cytotoxic, single point] | 
57 | CCCCCCCCCCCCCCCC[n+]1ccc(/C=N/O)cc1 | active: 23.1 µM | 
58 | COc1ccc(Cl)cc1NC(=O)C1CC(=O)N(C2CCCCC2)C1 (centres undefined) | inactive | 
59 | C=C(c1ccc(O)cc1)c1ccc(O)cc1 | inconclusive: 25.9 µM [cytotoxic, single point] | 
60 | CCN1C[C@@H]2[C@@H]3C(=O)N(C)C(=O)[C@@H]3[C@](C)(C(=O)OC)N2C1=NC | inactive | 
61 | O=c1c2cc3c(=O)n(-c4ccccc4O)c(=O)c3cc2c(=O)n1-c1ccccc1O | inconclusive: 23.1 µM [cytotoxic, partial curve] | 
62 | O=C(N/N=C/c1ccc([N+](=O)[O-])o1)c1ccccc1-n1cccc1 | inconclusive: 20.6 µM [cytotoxic, single point] | 
63 | COc1cccc(/C=N/NC(=O)c2[nH]nc3c2CCc2ccccc2-3)c1O | active: 3.66 µM | 
64 | C=CCn1c(O)c(C2=c3ccccc3=NC2=O)c2ccccc21 | active: 20.6 µM | 
65 | O=S(=O)(Nc1cc(Cl)ccc1-n1cncn1)c1cc(Br)ccc1Br | inconclusive: 18.4 µM [cytotoxic, single point] | 
66 | Cc1ccc(CNC(=O)C2CCN(S(=O)(=O)N3CCCC3)CC2)cc1 | inactive | 
67 | COc1ccc(OC)c(S(=O)(=O)N2CCCC(C(=O)NCCN3CCOCC3)C2)c1 (centres undefined) | inactive | 
68 | O=C(O)c1cccc(CSc2nc(-c3ccc(Cl)cc3)cc(C(F)(F)F)n2)c1 | inconclusive: 35.5 µM [cytotoxic, single point] | 
69 | COc1cccc(C2c3[nH]c4ccccc4c3CCN2C(=O)c2ccccc2F)c1OC (centres undefined) | inconclusive: 20.6 µM [cytotoxic, single point] | 
70 | COc1ccc(C2(C)CC(=O)NC2=O)cc1 (centres undefined) | inactive | 
71 | C/C(=N\NC(=O)c1ccccc1F)c1ccc2c(c1)Nc1ccccc1S2 | inconclusive: 23.1 µM [cytotoxic, single point] | 
72 | O=C(Cc1ccccc1)Nc1nc(-c2ccc(F)c(F)c2)cs1 | inactive | 
73 | Cc1ccc(C(C)C)c(OCCNC(=O)c2ccccc2O)c1 | inconclusive: 23.1 µM [cytotoxic, single point] | 
74 | CC(=O)N(Cc1ccc(Br)cc1)c1cccc(C)c1C | inconclusive: 29.1 µM [cytotoxic, single point] | 
